Consider 13 molecules from patent publication US6627771B1, “Gamma amino butyric and acid analogs” (Pfizer Inc, priority 1998, dated 2003).

Where only a bound is given, the exact number is not on record here.

The IC50 is the concentration needed to halve the response being measured. Lower therefore signals inhibition by little substance.

For the assay, the target named is α2δ subunit derived from porcine brain tissue (Sus scrofa, UniProt A0A287BIN3). In words: radioligand binding assay using [3H]gabapentin and the α2δ subunit. The settings on record: α2δ Assay IC50, [3H]gabapentin.

For `NC[C@H](CC(=O)O)C1CCCC1` [4R+, 4(R)-Amino-3-cyclopentyl-butyric Acid], the IC50 was 108 nM. In the case of `NC[C@@H](CC(=O)O)C1CCCC1` [5S−, (S)-4-Amino-3-cyclopentyl-butyric Acid] it was 145 nM; in that of `NCC(CC(=O)O)C1CCC1` (stereo not shown) [Example 1, 4-Amino-3-cyclobutyl-butyric Acid], 733 nM; in that of `NCC(CC(=O)O)C1CCC1` (stereo not shown) [Example 2, 4-Amino-3-cyclobutyl-butyric Acid], 645 nM.

`NCC(CC(=O)O)C1CCCC1` (stereo not shown) [Example 3, 4-Amino-3-cyclopentyl-butyric Acid]: the IC50 stood at 133 nM. In the case of `NCC(CC(=O)O)CC1CC1` (stereo not shown) [Example 6] it was 626 nM; in that of `NCC(CC(=O)O)CC1CCC1` (stereo not shown) [Example 7], 317 nM; in that of `NCC(CC(=O)O)CC1CCCC1` (stereo not shown) [Example 8], 3180 nM. `NCC(CC(=O)O)CC1CCCCC1` (stereo not shown) [Example 9] gave an IC50 of 4870 nM. In the case of `CC(CN)(CC(=O)O)C1CC1` (stereo not shown) [Example 10] it was ~10000 nM; in that of `CC(CN)(CC(=O)O)C1CCC1` (stereo not shown) [Example 11], > 10000 nM. `CC(CN)(CC(=O)O)CC1CCC1` (stereo not shown) [Example 12] came in with an IC50 of 800 nM. In the case of `CC(CN)(CC(=O)O)CC1CCCC1` (stereo not shown) [Example 13] it was > 10000 nM.
